The list shows a part of the results. At the low end of the ranking, values are background and their order means little.

This assay addresses GST-SBP-SLBP (stem-loop binding protein) (UniProt Q14493). Put plainly: targeted RNA Bind-n-Seq.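 Also: DESeq read counts versus GST-SBP nonspecific binding control pulldown.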 The settings on record: RBNS binding buffer: 25 mM Tris pH 7.5, 150 mM KCl, 3 mM MgCl2, 0.1% Tween, 0.5 mg/mL BSA, 1 mM DTT; 27 nM protein, 750 pM RNA pool; temperature not stated; high values mean tight binding.
On to “GGUCACGUCUCAAUCAACUCAUCGUCCAGGGAAAGCCCUGGCUAUUUCAACAGCUCGCAGUCAAG”, for which the binding signal (log2 fold change) was 0.201. Next, “GGUCACGUCUCAAUCAACUCUAUCUCCAGGGAAAACCCUGGUAAUCUCAACAGCUCGCAGUCAAG”: 0.0452; “GGUCACGUCUCAAUCAACUCUAGUCCCAGGGAAAUCCCUGGCUUAUUCAACAGCUCGCAGUCAAG”: -0.0879; “GGUCACGUCUCAAUCAACUCAUCCUCAGGAGUUUCCUCCUGCAAAUUCAACAGCUCGCAGUCAAG”: 0.164. Next, “GGUCACGUCUCAAUCAACUCUUUCUCAGGAGUUUUCUCCUGUAAUGUCAACAGCUCGCAGUCAAG”: 0.0078; “GGUCACGUCUCAAUCAACUCAUCCCCAGGAGUUUGCUCCUGUAUUUUCAACAGCUCGCAGUCAAG”: 0.125; “GGUCACGUCUCAAUCAACUCUAUUCCCAGGGAAAGCCCUGGCUAAUUCAACAGCUCGCAGUCAAG”: -0.0162. As for “GGUCACGUCUCAAUCAACUCUAAGGAGGGGGGGAAAACCCCUUUACCCUCAAUCUCAACAGCUCGCAGUCAAG”, the binding signal (log2 fold change) amounted to 0.0956. Consider “GGUCACGUCUCAAUCAACUCUUCCUCCAGGGAAAGCCCUGGUUAUGUCAACAGCUCGCAGUCAAG”, for which the binding signal (log2 fold change) stood at 0.178. Consider “GGUCACGUCUCAAUCAACUCUAUUUCAGGAGUUUCCUCCUGCUUACUCAACAGCUCGCAGUCAAG”, for which the binding signal (log2 fold change) was 0.00983. With “GGUCACGUCUCAAUCAACUCUAUCUCAGGAGUUUACUCCUGUAAUCUCAACAGCUCGCAGUCAAG”, the binding signal (log2 fold change) was 0.104. In the case of “GGUCACGUCUCAAUCAACUCUAUCUCCAGGGAAAUCCCUGGUUAUCUCAACAGCUCGCAGUCAAG” it was 0.0996. Next, “GGUCACGUCUCAAUCAACUCUAUUCCAGGAGUUUACUCCUGUUAAUUCAACAGCUCGCAGUCAAG”: 0.164; “GGUCACGUCUCAAUCAACUCUAUCCCAGGAGUUUUCUCCUGUAAUCUCAACAGCUCGCAGUCAAG”: -0.00916; “GGUCACGUCUCAAUCAACUCAUCCUCAGGAGUUUACUCCUGCUUUUUCAACAGCUCGCAGUCAAG”: 0.0763.

In the case of “GGUCACGUCUCAAUCAACUCUUCCUCCAGGGAAAGCCCUGGUAAACUCAACAGCUCGCAGUCAAG”, the binding signal (log2 fold change) turned out to be 0.0116. Regarding “GGUCACGUCUCAAUCAACUCUUCGUCAGGAGUUUCCUCCUGUAUAUUCAACAGCUCGCAGUCAAG”, the binding signal (log2 fold change) was -0.0332. Next, “GGUCACGUCUCAAUCAACUCUCAGGAGGGGGGGAAAACCCCUUUACCCUCAUCAUCAACAGCUCGCAGUCAAG”: -0.123; “GGUCACGUCUCAAUCAACUCUAUAGAGGGGGGGAAAACCCCUUUGCCCUCGAAUUCAACAGCUCGCAGUCAAG”: 0.377. As to “GGUCACGUCUCAAUCAACUCUAGUCCAGGAGUUUCCUCCUGUAAAUUCAACAGCUCGCAGUCAAG”, the binding signal (log2 fold change) was -0.122. For “GGUCACGUCUCAAUCAACUCAUAAGAGGGGGGGAAAACCCCUUUACCCUCCCAAUCAACAGCUCGCAGUCAAG”, the binding signal (log2 fold change) was -0.373. Next, “GGUCACGUCUCAAUCAACUCAAUCUCAGGAGUUUGCUCCUGCUAAUUCAACAGCUCGCAGUCAAG”: -0.0965. Turning to “GGUCACGUCUCAAUCAACUCAUCGCCAGGAGUUUGCUCCUGCUAAUUCAACAGCUCGCAGUCAAG”, the binding signal (log2 fold change) is -0.0701. Take “GGUCACGUCUCAAUCAACUCUAUUUCCAGGGAAACCCCUGGCAUAUUCAACAGCUCGCAGUCAAG”: the binding signal (log2 fold change) was -0.031. As to “GGUCACGUCUCAAUCAACUCUUUCUCCAGGGAAAGCCCUGGCAUGUUCAACAGCUCGCAGUCAAG”, the binding signal (log2 fold change) amounted to 0.18. In the case of “GGUCACGUCUCAAUCAACUCUUCUCCAGGAGUUUUCUCCUGUUAAUUCAACAGCUCGCAGUCAAG”, the binding signal (log2 fold change) is -0.122. On to “GGUCACGUCUCAAUCAACUCUACUUCCAGGGAAAGCCCUGGCUUACUCAACAGCUCGCAGUCAAG”, for which the binding signal (log2 fold change) was -0.0517. With “GGUCACGUCUCAAUCAACUCAAUCGCAGGAGUUUUCUCCUGGUUAUUCAACAGCUCGCAGUCAAG”, the binding signal (log2 fold change) was found to be 0.00922.

Take “GGUCACGUCUCAAUCAACUCUUUUCCCAGGGAAAGCCCUGGCAAAUUCAACAGCUCGCAGUCAAG”: the binding signal (log2 fold change) amounted to 0.0585. For “GGUCACGUCUCAAUCAACUCACUAGAGGGGGGGAAAACCCCUUUGCCCUCAUCCUCAACAGCUCGCAGUCAAG”, the binding signal (log2 fold change) is 0.0248. With “GGUCACGUCUCAAUCAACUCAAUUUCAGGAGUUUGCUCCUGCUUUUUCAACAGCUCGCAGUCAAG”, the binding signal (log2 fold change) amounted to 0.191. As for “GGUCACGUCUCAAUCAACUCAACUCCAGGAGUUUCCUCCUGUAAAUUCAACAGCUCGCAGUCAAG”, the binding signal (log2 fold change) came out at 0.18.

As for “GGUCACGUCUCAAUCAACUCUUCUCCCAGGGAAAACCCUGGCUUUUUCAACAGCUCGCAGUCAAG”, the binding signal (log2 fold change) was found to be 0.105. As to “GGUCACGUCUCAAUCAACUCGUUUUCAGGAGUUUUCUCCUGCAUUCUCAACAGCUCGCAGUCAAG”, the binding signal (log2 fold change) came out at 0.0191. Turning to “GGUCACGUCUCAAUCAACUCCUCAGAGGGGGGGAAAACCCCUUUGCCCUCAAUCUCAACAGCUCGCAGUCAAG”, the binding signal (log2 fold change) was -0.298. Next, “GGUCACGUCUCAAUCAACUCUUUCUCAGGAGUUUCCUCCUGUUAUUUCAACAGCUCGCAGUCAAG”: 0.158. In the case of “GGUCACGUCUCAAUCAACUCAAUCUCCAGGGAAAGCCCUGGUAAUCUCAACAGCUCGCAGUCAAG”, the binding signal (log2 fold change) was determined as 0.0646.

For the sequence “GGUCACGUCUCAAUCAACUCUCAAGAGGGGGGGAAAACCCCUUUGCCCUCAAACUCAACAGCUCGCAGUCAAG”, the binding signal (log2 fold change) is -0.197. In the case of “GGUCACGUCUCAAUCAACUCUAUGGCAGGAGUUUUCUCCUGGAAUUUCAACAGCUCGCAGUCAAG” it was -0.0742. In the case of “GGUCACGUCUCAAUCAACUCUAUCGCAGGAGUUUCCUCCUGGUAUCUCAACAGCUCGCAGUCAAG” it was 0.0241; in that of “GGUCACGUCUCAAUCAACUCAAUCGAGGGGGGGAAAACCCCUUUACCCUCACCUUCAACAGCUCGCAGUCAAG”, 0.499; in that of “GGUCACGUCUCAAUCAACUCAAUUUCAGGAGUUUGCUCCUGCAUUCUCAACAGCUCGCAGUCAAG”, 0.149. Next, “GGUCACGUCUCAAUCAACUCUUCCUCCAGGGAAAACCCUGGCAUUCUCAACAGCUCGCAGUCAAG”: -0.119.

With “GGUCACGUCUCAAUCAACUCAUCCUCAGGAGUUUACUCCUGCUAAGUCAACAGCUCGCAGUCAAG”, the binding signal (log2 fold change) turned out to be 0.046. “GGUCACGUCUCAAUCAACUCAAUUCCCAGGGAAAGCCCUGGUUAUCUCAACAGCUCGCAGUCAAG”: the binding signal (log2 fold change) is -0.296. For “GGUCACGUCUCAAUCAACUCCUUAGAGGGGGGGAAAACCCCUUUGCCCUCCAUGUCAACAGCUCGCAGUCAAG”, the binding signal (log2 fold change) turned out to be 0.158. As to “GGUCACGUCUCAAUCAACUCUACGCCAGGAGUUUCCUCCUGUAUUCUCAACAGCUCGCAGUCAAG”, the binding signal (log2 fold change) was -0.0618.

Values taken from PMC5892938.
